# According to PubChem BioAssay (NCATS):
# Inconclusive results, whose numbers are uncertain, are shown with a selection of clear calls. A potency beside an inconclusive call is a rough fit, not a confirmed value. For some assays here: A note “side channel” means that the fit belongs to a control or component signal, not to the main read-out. Activity calls are given as the source filed them. Unless noted, the call rests on the fitted dose curve; in most records, active means well fitted activation curve with a large enough effect; inconclusive means small, poorly fitted or top-dose-only effect, or effect the other way; inactive means flat fitted curve, though single readings scatter.
# Target: 3',5'-cyclic-AMP phosphodiesterase 4B (Homo sapiens) (UniProt Q07343)
# Assay: qHTS Assay for Inhibitors of PDE-IV (AID 607; active means well fitted activation curve with a large enough effect in the main read-out, with a control signal flat, not every such curve was filed as active; inconclusive means small, poorly fitted or top-dose-only effect, or effect the other way, or a change in a side signal; on activation (PDE inhibition): % of control where 0% means no effect)
# Settings: HEK293 ACTOne CNG channel cells, membrane potential fluorescence; activation (PDE inhibition): at 22.9 µM (top of the series)
# How it was run: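 The readout is membrane depolarisation from a cAMP-sensing CNG channel, detected with a potential dye at ex 535/em 590. Cells were HEK293-derived (endogenous PDE-IV) at 1000 cells/well, titrated up to 22.9 uM final.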
# Potency means the concentration at half of the fitted maximal effect; tags describe the fitted curve by direction and shape or compound fluorescence and quenching.
# Chain of UniProt Q07343 (Q07343 whole entry, looked up): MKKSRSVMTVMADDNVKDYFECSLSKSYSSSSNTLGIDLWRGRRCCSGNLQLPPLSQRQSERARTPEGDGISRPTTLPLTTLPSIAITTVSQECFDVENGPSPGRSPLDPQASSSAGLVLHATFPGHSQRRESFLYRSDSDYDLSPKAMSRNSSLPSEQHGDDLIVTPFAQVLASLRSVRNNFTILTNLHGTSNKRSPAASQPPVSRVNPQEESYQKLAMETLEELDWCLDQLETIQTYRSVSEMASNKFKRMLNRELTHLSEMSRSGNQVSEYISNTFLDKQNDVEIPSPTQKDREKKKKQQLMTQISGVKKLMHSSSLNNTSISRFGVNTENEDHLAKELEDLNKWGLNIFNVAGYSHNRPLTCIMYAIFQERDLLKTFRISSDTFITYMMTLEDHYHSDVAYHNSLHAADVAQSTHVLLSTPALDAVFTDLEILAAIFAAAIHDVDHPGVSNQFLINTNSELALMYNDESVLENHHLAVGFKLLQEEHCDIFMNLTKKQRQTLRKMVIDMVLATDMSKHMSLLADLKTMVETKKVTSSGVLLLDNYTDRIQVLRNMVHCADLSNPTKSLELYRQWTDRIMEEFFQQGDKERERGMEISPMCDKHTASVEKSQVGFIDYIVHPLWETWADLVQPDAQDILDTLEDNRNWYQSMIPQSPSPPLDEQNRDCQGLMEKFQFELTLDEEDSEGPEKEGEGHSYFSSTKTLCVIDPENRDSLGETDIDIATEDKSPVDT
row,SMILES,Potency
1,Cc1cccc(CNc2ncnc3ccc(-c4cccc(C#N)c4)cc23)c1,"inconclusive: 12.6 µM [activator, partial curve]"
2,O=[N+]([O-])c1ccc2c(c1)S(=O)c1ccccc1-2 (centres undefined),inactive
3,N[C@@H](Cc1ccnnc1)C(=O)O,"inconclusive: 1.26 µM [inhibitor, partial curve, poor fit]"

# System: not listed separately
# Assay: qHTS Assay for Identification of Small Molecule Agonists for Hypoxia Response Element Signaling Pathway (AID 914; active means well fitted activation curve with a large enough effect in the signal ratio, with a control signal flat, not every such curve was filed as active; inconclusive means small, poorly fitted or top-dose-only effect, or effect the other way, or a change in a side signal; the % refers to the signal ratio; on activation: top concentration of the series differs between compounds; % of control where 0% means no effect)
# Settings: ME-180 (cervical carcinoma) HRE-bla reporter, beta-lactamase ratio, CoCl2, 17 h; activation: hits give high values
# How it was run: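 Cells were plated overnight, pin-dosed with compound in a titration series, co-stimulated with EC50 CoCl2 and incubated 17 hours at 37 degrees Celsius. CCF4 substrate was then loaded, and AC50 values came from the 460nm/530nm ratio.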
SMILES,Potency,activation
CCSc1nnc(NC(=O)NC(CC)(C(F)(F)F)C(F)(F)F)s1,"inconclusive: 12.6 µM [inhibitor, single point]",–
Brc1ccc(-c2cnc3n2CCCC3)cc1,–,inconclusive: -54.1%
CC(=O)[C@]1(O)CC[C@@H]2[C@H]3C[C@@H](C)C4=CC(=O)CC[C@@]4(C)[C@H]3[C@@H](O)C[C@]21C,"inconclusive: 0.0398 µM [inhibitor, full curve]",–
CC(=O)S[C@H]1CC2=CC(=O)CC[C@@]2(C)[C@H]2CC[C@@]3(C)[C@H](CC[C@]34CCC(=O)O4)[C@@H]12,–,inactive: -20.6%
CCOC(=O)NC(Nc1sc2c(c1C(=O)OC)CCN(C)C2)(C(F)(F)F)C(F)(F)F,–,inactive: 6.5%
COc1ccccc1-c1nnc2n1N=C(c1ccc(O)c(O)c1)CS2,"inconclusive: 0.316 µM [inhibitor, full curve]",–
Cc1cccc(CNc2ncnc3ccc(-c4cccc(C#N)c4)cc23)c1,–,inconclusive: -19.7%
COc1cccc(NC(=O)C2CC(=O)n3cnnc3S2)c1 (centres undefined),"inconclusive: 7.94 µM [activator, partial curve]",–
Cn1c(=O)cc(NCc2ccccc2)[nH]c1=O,–,inconclusive: -37.1%
CCN(CC)CC[n+]1ccc2c(C)c3[nH]c4ccc(O)cc4c3c(C)c2c1,"inconclusive: 0.0398 µM [inhibitor, full curve, poor fit]",–
O=C1C[C@H]2OCC=C3CN4CC[C@@]5(C(=O)O)[C@H](N1)[C@H]2[C@H]3C[C@H]45,–,inconclusive: -31%
Cc1ccc(Cn2ncc3c(N4CCN(Cc5ccc(Cl)cc5)CC4)ncnc32)cc1,"inconclusive: 3.16 µM [inhibitor, full curve]",–
CCN1CC=C2C(C#N)=C(N)C(C#N)(C#N)[C@H](c3cccc(OC)c3OC)[C@H]2C1,"inconclusive: 12.6 µM [activator, single point]",–
COCCNC(=O)c1c(N)n(CCC2=CCCCC2)c2nc3ccccc3nc12,active: 10 µM,–
CCOC(=O)c1c2c(c(=S)n(-c3ccccc3)c1N)CCC2,"inconclusive: 6.31 µM [inhibitor, partial curve]",–
CCCc1cc(-c2nc(N)ncc2-c2ccc3c(c2)OCCCO3)c(O)cc1OC,"inconclusive: 12.6 µM [cytotoxic, side channel, single point]",–
O=[N+]([O-])c1ccc2c(c1)S(=O)c1ccccc1-2 (centres undefined),–,inactive: -10.8%
Cc1c([C@H]2[C@@H](CC#N)C2(C)C)c2ccccc2n1C,"inconclusive: 10 µM [inhibitor, partial curve]",–
Cc1ccc(C2/C(=C(\O)c3ccc4c(c3)OCCO4)C(=O)C(=O)N2CCCN(C)C)o1 (centres undefined),"inconclusive: 10 µM [inhibitor, partial curve]",–
N#Cc1c(N)n(CCOC(=O)c2ccc(Cl)cc2)c2nc3ccccc3nc12,"inconclusive: 12.6 µM [activator, single point]",–
CN1CCc2nc(SCC(=O)Nc3ccc(Cl)cc3)c(C#N)cc2C1,"inconclusive: 10 µM [inhibitor, partial curve]",–
N#CC1=C(N)C(C#N)(C#N)[C@H](c2ccncc2)[C@H]2CN(C(=O)OCc3ccccc3)CC=C12,–,inconclusive: -2.08%

# System: not listed separately
# Assay: qHTS Assay for Identification of Small Molecule Agonists for Thrombopoietin (TPO) Signaling Pathway (AID 917); on activity, positive = activation: on the % scale 0 is the no-effect control and ±100 the full control effect
# Settings: TPO signaling pathway reporter cells, agonist qHTS, stimulated with TPO at its EC50; activity, positive = activation: at 38.5 µM (top of the series)
# How it was run: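 Luminescence from a Glycoprotein IIb promoter–driven luciferase reporter served as read-out in murine Ba/F3 cells carrying the human TPO receptor. Cells, deprived of IL-3 overnight, received compounds with 26 pM TPO and were incubated 24 hrs at 37 C.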
row,SMILES,Potency
1,C[C@@]12C=CC(=O)C=C1CC[C@@H]1C2=CC[C@]2(C)[C@@H]1CC[C@H]2C(=O)CN1CCN(c2cc(N3CCCC3)nc(N3CCCC3)n2)CC1,inactive
2,C=C/C(C)=C/[C@]1(C)SC(=O)C(C)=C1O,inactive
3,COc1c2c(nc3ccccc13)O[C@@H]([C@@](C)(O)CO)C2,"inconclusive: 3.16 µM [activator, single point]"
4,Nc1nc2c(nc(Br)n2[C@@H]2O[C@H]3COP(=O)(O)O[C@@H]3[C@H]2O)c(=O)[nH]1,inactive
